Measured values: PubChem BioAssay AID1508624 (National Center for Advancing Translational Sciences (NCATS), 2021)
Screen size: about 48,000 compounds; about 120 (0.25%) were called active. Another 4% or so got no clear call; they are omitted. Calls come from the whole dose curve; as a rule, active = well fitted activation curve with a large enough effect; inconclusive = small, poorly fitted or top-dose-only effect, or another doubt; inactive = no such curve, though single readings can be large or run the other way. Some of the results follow.

Assay: Primary qHTS for Identification of Small Molecule Activators of Huntingtin-Antisense Promoter Activity; note: nearly all actives have a fitted effect of over 55% in size
Conditions: HEK293 HTT-AS promoter firefly luciferase reporter, 24 h; series mostly up to 57.5 µM; activity change, positive = activation: at the top concentration
Summary of the method: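 Firefly luciferase readout (Dual-Glo, 10 min RT) after 24 h, 37 °C compound exposure (final up to 57.5 uM) of HEK293 reporter cells cultured 24 h beforehand; PTC124 at 50 uM final as control inhibitor; activity scaled vehicle 0%, zero RLU -100%.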

Activity change, positive = activation, inactive:
COc1ccc(C2(CNC(=O)C(=O)Nc3ccc(F)cc3)CCCC2)cc1OC 1.95%, CCN(CC)CCCCNc1nc2cc(Cl)c(Cl)cc2nc1-c1ccc(-c2cccs2)s1 -24.4%, CCc1ccccc1NC(=O)C(=O)NCC(c1cccnc1)N1CCN(c2ccccc2F)CC1 (stereo not given) -35.1%, CCOC(=O)c1c(S(=O)(=O)NCC(=O)Nc2cc(C)ccc2C)c(C)n(C)c1C -12.3%, CCc1nn(Cc2cc(C)ccc2C)c(=O)c2cc3cc(C)ccc3n12 -15.2%, Cc1ccc(NS(=O)(=O)c2ccc3c(c2)CCCN3C(=O)C2CCC2)c(C)c1 -12.6%, CCc1nn2c(=O)cc(COC(=O)c3ccco3)nc2s1 6.57%, CCOC(=O)C1CCN(S(=O)(=O)c2csc(C(N)=O)c2)CC1 -32.6%, COc1ccc(N2CCN(C(=O)c3cc4c(s3)-c3ccccc3OC4)CC2)cc1 -16.5%, COc1ccc(N2CC(NC(=O)c3ccc(Br)o3)CC2=O)cc1 (stereo not given) -15.5%, CCOC(=O)N1CCc2c(sc(NCc3cc(OC)c(OC)cc3OC)c2C(=O)Nc2ccc(OCC)cc2)C1 -23.2%, CS(=O)(=O)N(Cc1ccco1)CC(O)Cn1c2ccccc2c2ccccc21 (stereo not given) -25.2%, CCc1ccc(-n2c(=O)c3cccnc3n2CC(=O)Nc2cc(F)ccc2F)cc1 -18.4%, CC(=O)Oc1cc2c(s1)CCN(C(C(=O)C1CC1)c1ccccc1F)C2 (stereo not given) -74.7%, CCN(CC)C(=O)Cn1cc(SCC(=O)Nc2ccccc2C)c2ccccc21 -14.5%, CCN1CCN(c2ncc3c(n2)CCN(Cc2ccc(OC(C)C)cc2)C3)CC1 -13.6%, Cc1cccc(-c2nc(SCCCOc3ccc(Cl)c(C)c3)n3[nH]c(=O)cc3n2)c1 -7.38%, CCOC(=O)c1cccc(NC(=O)NCc2ccc3c(c2)CCN3C(=O)c2ccccc2)c1 -44.5%, CC(O)CCCCn1c(=O)c2c(ncn2C)n(C)c1=O (stereo not given) -2.05%, CCOC(=O)c1ccc(-c2ccc(/C=C(\C#N)C(=O)Nc3ccc(OCC)cc3)o2)cc1 10.9%, Cc1ccc(C)n1-c1nnc(N2CCCC(C(=O)NCc3cccc(Cl)c3)C2)s1 (stereo not given) -10.1%, CCc1ccc(-n2c(Cc3ccccc3)nnc2SCc2nc(-c3cccs3)no2)cc1 -37.7%, CC1=C(C(=O)NCc2ccc(Cl)cc2)C2(CCCCC2)OC1=O -8.61%, Cc1ccc(/C=C/c2onc(C)c2S(=O)(=O)N2CCC(C(=O)NCC(C)c3ccccc3)CC2)cc1 (stereo not given) -11.1%, CCn1cc(S(=O)(=O)c2cccc(Cl)c2)c(=O)c2cc(F)c(N3CCN(c4ccccc4)CC3)cc21 -0.638%, CC(C)C(=O)Nc1ccc([N+](=O)[O-])c(C(F)(F)F)c1, CCCCCn1c(-c2ccc(OC)c(OC)c2)nc2ccccc21 -0.468%, Cc1ccc(Cl)cc1N1CCN(S(=O)(=O)c2ccc3c(c2)CCCN3C(=O)C2CCC2)CC1 -41.9%, O=C(NCCc1ccccc1)c1cc(Sc2cccc(Cl)c2)nc2ccccc12 -13%, COc1cc(OC)c(NC(=O)Cn2c(=O)oc3cc(S(=O)(=O)N4CCCC4)ccc32)cc1Cl -37.6%, Cc1ccc(CN2C(=O)c3oc4ccc(C)cc4c(=O)c3C2c2ccc(O)cc2)cc1 (stereo not given) -10.1%, COc1ccc(NS(=O)(=O)c2ccc3[nH]c4c(c3c2)CCCC4)cc1Cl -35.2%, O=C(Cn1ncc2c([nH]c3ccccc32)c1=O)NCC1CCN(Cc2ccc(F)cc2)CC1 -12.6%, Cc1ccccc1C(=O)Nc1nc(-c2nnn(-c3ccc(C(C)C)cc3)c2C)ns1 -32.1%, CCOc1ccccc1CNC(=O)C1CCN(S(=O)(=O)c2ccc3c(ccn3C)c2)CC1 -13.1%, Cc1cc(Cl)ccc1NC(=O)CN(c1ccccc1Br)S(C)(=O)=O -5.75%, CCOc1ccc(C(=O)NCCS(=O)(=O)N2CCN(c3ccccc3F)CC2)cc1OCC -16.1%, COc1ccc(CN2CCN(c3ncnc4sc5c(c34)CC(C)CC5)CC2)cc1F (stereo not given) 14.3% [at 11.5 µM, percent change from vehicle, -100% = no light], COc1ccccc1N1CCN(CCCNC(=O)c2cnn(-c3ccccc3)c2C2CCN(C(=O)OC(C)(C)C)CC2)CC1 -20.8%, Cc1ccccc1C(=O)OCc1cc(=O)n2nc(-c3cccs3)sc2n1 0.811%, CC(=O)O[C@]1(C(C)=O)CC[C@@H]2[C@@H]3C[C@H](C)C4=CC(=O)CC[C@]4(C)[C@H]3CC[C@@]21C -21%, CC1=C(C(=O)Nc2ccccc2)C(c2cccs2)n2nc(SCc3ccccc3F)nc2N1 (stereo not given) -18.3%, Cc1ccc(C)c(NC(=O)c2cc(S(=O)(=O)N3CCCCCC3)ccc2F)c1 -11.6%, CN(C)CCN(Cc1ccco1)C(=O)c1oc2ccccc2c1NC(=O)c1ccccc1 -18.9%, Cc1ccc(OCC(=O)N(Cc2ccco2)Cc2ccc(C)o2)cc1 -24.3%, COc1ccc(-c2cc(C(F)(F)F)n3nc(C(=O)Nc4ccccc4SC)cc3n2)cc1OC -11.5%, CCC(C)NC(=O)c1nn(-c2ccc(C)cc2)c(=O)n(C)c1=O (stereo not given) -6.5%, COc1cc2c(=O)n(CCC(=O)NCC3CCCO3)c(=O)n(CC(=O)Nc3ccc(C)c(C)c3)c2cc1OC (stereo not given) -7.36%, COc1cccc(CCNC(=O)c2c(O)nc3ccccn3c2=O)c1 23%, CC(C)c1cccc(OCCn2c(-c3ccc(Cl)cc3)nc3ccccc3c2=O)c1 -12.2%, CCOc1ccccc1NC(=O)c1cnn2c(C(F)F)cc(-c3ccccc3)nc12 -42.7%, COc1ccc(NC(=O)CSc2nc3ccccc3n2Cc2cccc(OC)c2)cc1 -23.9%, CCOc1ccc(NC(=O)C2CCN(c3nnc(-n4c(C)ccc4C)s3)CC2)cc1 -5.03%, Cc1nc(-c2cccnc2)sc1CCNS(=O)(=O)c1ccc(F)cc1 -13.3%, COCCNC(=O)c1cccc(-n2c(C)nc3cccnc32)c1 -0.895%, COc1ccc2c(CNCCc3ccco3)c(C(=O)O)n(Cc3ccccc3)c2c1 -11.9%, COc1ccc(-c2cc(C(F)(F)F)nc(SCC(=O)NCCc3ccccc3)n2)cc1OC -2.21%, CCc1sc(Nc2cccc(C)c2C)nc1-c1cc2cccc(OC)c2oc1=O -9.65%, COc1cc(OC)cc(-n2c(=O)c3sccc3n(Cc3c(C)cc(C)cc3C)c2=O)c1 -12.2%, Cc1ccc(NC(=O)c2cc(S(=O)(=O)N3CCc4ccccc43)ccc2F)cc1Cl -24.3%
